Some of the results follow.
Test system: PfHDP1 homeodomain (GST-tagged)
Test: gcPBM binding intensity (ln(normalized median fluorescence intensity)); higher = stronger DNA binding
How it was run: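 Binding intensity values are the highest Masliner-normalised natural-log median intensity among replicate spots of either probe orientation. The binding step lasted 1 h in 1× PBS with 1% milk, 0.2 mg/ml BSA, 0.5% salmon testes DNA and 0.03% Triton X-100, using GST-tagged P. falciparum DNA-binding domains expressed in E. coli on an Agilent 4 × 180k array of primer-extended double-stranded 36-bp intergenic genomic probes plus negative controls. Alexa488 anti-GST antibody and a 488 nm scan detected bound protein.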

Sequence	gcPBM binding intensity (ln)
AATAAATAAAAATGCACACAGTTAACATGTTGAATT [CACACA_site4795]	9.82
AAAAAACAATTTGTGTGTACACATGATACGTTCGAT [XGTACX_site4112]	7.16
AAGAAGTGGAAAATATACTCCACATATATATATGTG [CACACA_negctrl_site304]	7.72
ATATATATTTTTAATTGTACAGAATTAAAAATATTG [XGTACX_site1967]	6.27
AAAAAAAAAAAAAGCTGTACAATTAAAGACAAACCT [XGTACX_site8610]	6.52
CTTTAACCATATATGTGTACGTATTTTATTCATATT [XGTACX_site6212]	7.21
TTATAATATATATAAAAGAAAAAAAATTATAATATA [CACACA_negctrl_site90]	6.53
TTATTTTTCTTTATTGGTACACACGAAAAAAAAATT [XGTACX_site6482]	6.43
TTTTTTACAGAAAAATATTAAAATTATAAATGTGAA [GTGCAC_negctrl_site451]	6.38
GCCCACACGAACCATGCATGCCACGATATAAACCAC [TGCATGCA_site322]	7.15
TAATATATATATATGGTGCATTTAATTTATATATAA	10.2
TATGAAATTTTAATTACACACAGGAAAATAAAATGT [CACACA_site8430]	6.46
TATTAATATATAGTAGTGCAATAAAGATATACTGAA	9.67
AACATACTCACGAACATACACACGGACATACATACG [CACACA_site603]	6.98
AATAAATAAATATATTGTACATATATATATATATAT [XGTACX_site8627]	9.32
CGAAAGGAAATATAACGTACATAAGATTATATTCAC [XGTACX_site3868]	6.47
ATGCATACACTTATATGTACACATTTACATATTATT [XGTACX_site2841]	6.93
TATTAAAAGAAAAAAAAAAAAAAATTAATACATATA [XGTACX_negctrl_site582]	5.8
ATGAACAAGGGGCACACACACATTATGACTAATTTA [CACACA_site3204]	6.74

Sequence	gcPBM binding intensity (ln)
ATATGCTATTAATTATGTACATATATATATATATAT [XGTACX_site4901]	9.29
GTACATTATATATATACACACATACATAATAAAGAA [CACACA_site5528]	6.94
ACTACGTGTCAAAAATATTAATTACAAATGAATAAA [GTGCAC_negctrl_site248]	6.08
GGACTATACAGTTATACACACACATATATATATAAT [CACACA_site7991]	6.99
TTTAGTGAGTTTGTTGTGCACTGAAAAAATTACAAT	10.4
TAATATTTTAATTGTGTGCACATTAATATTATAAAA	10.3
TATATTATTTTTTGTGGTACATGTATTTTTACCTAA [XGTACX_site4348]	6.6
TACATATTTACTATCACACACACGATATATATAAAT [CACACA_site1242]	6.8
TACTTAAAAAAAAAAAAAATAAATATTATGTATTAT [CACACA_negctrl_site138]	6.04
ATACGAAAAAATAGACGTACTATGAAATAATAATTT [XGTACX_site8387]	6.66
AAAACAAACGGACACACACACATATATATATATATA [CACACA_site5924]	9.42
ACATGTAAATTTACATGTACATGTAACACTTAATAT [XGTACX_site4575]	6.68
TATATTAAACAATATACACACATTAATGTATCCATA [CACACA_site5523]	6.75
TTATATATATATATATGTACACATATATAACATGAT [XGTACX_site6643]	7.16
TGTAATATTTTTCATGCATGCTCTTCTTTTACATAA [TGCATGCA_site144]	7.2
ATAATTTATATTACTTGTACATATTTATATGAACGA [XGTACX_site3610]	6.14
ATATTATACATTTATACACACATAAAAAGACAAAAA [CACACA_site3565]	6.9
AAACAATTTGGGTGTACACATGATACGTTCGATGAG [CACACA_site5160]	7.01
ATAACCTAATAATACACACACATGAATATAAATAAC [CACACA_site6584]	6.92

Sequence	gcPBM binding intensity (ln)
ATATATATTTTATACGCATGTAATTATTATGTGGTC [TGCATGCA_site45]	6.73
AGGTGTCATAGATGCACACAAAAGTAACACGCACCT [CACACA_site4418]	8.92
AAAAGGTTATCAAAATGTACGAAATGTTACAAAAAT [XGTACX_site6215]	6.38
AAATGTTAAAAAGAGAAAAACAATAAAAAACAATTA [CACACA_negctrl_site1044]	6.53
AAGGAGAAATATTGCACACGTGCAAAATGGTATGAG [CACACA_site259]	10.8
TATTCTTTTATGAATACACACATATACGAAAATATT [CACACA_site6585]	6.61
AAAATTAAAAATAACACACACATATTTATATTTATA [CACACA_site7329]	6.24
AGTTATATGTACTACACACGTACACAAAATAAGATA [CACACA_site3719]	7.14
CTTAATTTTTTTTAATGTACATACATATAAACCTTT [XGTACX_site2233]	6.84
TATTTTTATTGGTGAATACACACGTATATATATATT [CACACA_site2401]	6.76
TGTTTATGTTTACATGTGCGCATTACAGAAAAAAAA [GTGCAC_site9669]	7.47
ACATGTATACTTTTTACGAAAAAAAAAAAAAAAAAA [CACACA_negctrl_site1638]	6.22
TTTTTATTTAAAAGTAGTACAAGGGTTATTATTAAC [XGTACX_site1555]	6.45
CACGCGCACGAACACACACACACACGCATATAAATA [CACACA_site7103]	7.4
TACAGATAAATATACATACATATATATATATATATA [XGTACX_negctrl_site182]	9.26
ATATTATTTTATTTTTGTACAGATATCTTTAAAAAA [XGTACX_site3734]	6.62
TTTTTTTTTTTTTTTGCACACTTAAATTTGGTGGGG [CACACA_site2344]	9.02
AATACATACATACATACATGCATATATATATATATA [TGCATGCA_site462]	9.29
TTATTAAAAATGGTATGTACGCACATAATATATATA [XGTACX_site3230]	7.33

Source: the supplement of paper PMC11417369
